According to the RNAGym collection of RNA variant scans (doi:10.1073/pnas.2313332121):
This sample is rich in variants without activity.

B1: TPR 5TU (parent)
chain: GGAUCUUCUCGAUCUAACAAAAAAGACAAAUCUGCCACAAAGCUUGAGAGCAUCUUCGGAUGCAGAGGCGGCAGCCUUCGGUGGCGCGAUAGCGCCAACGUUCUCAACUAUGACACGCAAAACGCGUGCUCCGUUGAAUGGAGUUUAUCAUG

Variants of: B1
Assay: polymerase ribozyme fitness, log enrichment relative to wild type (log ratio); higher = more active; in vitro selection for triplet polymerase activity
Method in brief: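 Streptavidin-bead capture of gel-excised extended constructs, followed by RT-PCR, closed a single triplicate in vitro selection round. That round began by annealing PCR-built, transcribed mutant libraries of each subunit of a heterodimeric triplet polymerase ribozyme with a biotinylated primer, the partner subunit and triplets, then incubating them frozen at −7 °C. After Illumina sequencing of inputs and outputs, genotypes needed ≥10 input reads and ≥1 read per output. Fitness is the base-2 logarithm of genotype enrichment over wild-type enrichment, using inverse-variance-weighted replicate averages.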

Row | Variant | polymerase ribozyme fitness (log ratio)
1 | C10A A66C G84A C87U | ≤ -4.2
2 | C10A A73U U104G C118G | ≤ -4.2
3 | C10A C14G U77A C85A G92A A110G A122G | ≤ -4.2
4 | C10A C14U C93G C149U | ≤ -4.2
5 | C10A C32A U56G G80C U82G C87U A98U | ≤ -4.2
6 | C10A C32G U44G C57U U82G G83A | ≤ -4.2
7 | C10A C35U A97U | ≤ -4.2
8 | C10A C51U C93U U111G | ≤ -4.2
9 | C10A C57U C95U C105A C116G | ≤ -4.2
10 | C10A C85U | -4.01
11 | C10A C93U G141A | ≤ -4.2
12 | C10A C116G C118G G133U U145G | ≤ -4.2
13 | C10A G11A A39U C93A G141U | ≤ -4.2
14 | C10A G46A C85G C114U G140A G141A G143A | ≤ -4.2
15 | C10A G67C C93G C99G A137U U146A | ≤ -4.2
16 | C10A G92A | -4.08
17 | C10A U13G A23G U44G U102A A121U | ≤ -4.2
18 | C10A U15G U31A C36U U55A A73G C108G A142G | ≤ -4.2
19 | C10A U31C C93A A97G U144C | ≤ -4.2
20 | C10A U33G A60G C75A A106U G117U A137C U144A | ≤ -4.2
21 | C10A U56A G59C C85U G86A G92A | ≤ -4.2

Row | Variant | polymerase ribozyme fitness (log ratio)
22 | C10A U56G C57G G59A C79U G83C C99G | ≤ -4.2
23 | C10G A12C A29U A60G C87U G94C U139A | ≤ -4.2
24 | C10G A12U C18G C87G G92U U146G | ≤ -4.2
25 | C10G A16C G50A C93U | ≤ -4.2
26 | C10G A16C G58A U90C C95U A98G A110C A113U | ≤ -4.2
27 | C10G A16G A37G G70U C85U G143U | ≤ -4.2
28 | C10G A16U C57U G71C A91G C99A | ≤ -4.2
29 | C10G A16U C76G G84A C118A G141C | ≤ -4.2
30 | C10G A17C U33A U55A A73G C87G | ≤ -4.2
31 | C10G A17U A22U G48A G59A U77G G86C C95U U148A | ≤ -4.2
32 | C10G A17U G58C G59U G81U G92A A106C | ≤ -4.2
33 | C10G A19G A47C C79G | ≤ -4.2
34 | C10G A19U G46A C85A C105U | ≤ -4.2
35 | C10G A20G A40U G94U C125U G133U | ≤ -4.2
36 | C10G A20G A138G U144A U145A | ≤ -4.2
37 | C10G A20U A52C G86A G92U A115U G152A | ≤ -4.2
38 | C10G A20U C51U A91U | ≤ -4.2
39 | C10G A20U G42C G62A C75A C87G G141A | ≤ -4.2
40 | C10G A20U G59U U101G | ≤ -4.2
41 | C10G A21C A60C C79U C85G A98U A110C C129G | ≤ -4.2
42 | C10G A21U A22U U55A G59C A142C | ≤ -4.2

Row | Variant | polymerase ribozyme fitness (log ratio)
43 | C10G A21U A37U C43U C57U C123U U146A | ≤ -4.2
44 | C10G A21U C36U A39U C93A G126A | ≤ -4.2
45 | C10G A22G A39U U109C | ≤ -4.2
46 | C10G A22U A26G C63U | ≤ -4.2
47 | C10G A24U A37C G92U | ≤ -4.2
48 | C10G A26C C93A C116U C125G U134C | ≤ -4.2
49 | C10G A28C A29C C96G C99G | ≤ -4.2
50 | C10G A30C G92U A107G U148C A150U | ≤ -4.2
51 | C10G A30C U45A C76G U77G C95A A97U U101A C114U U134G | ≤ -4.2
52 | C10G A37U C96A | ≤ -4.2
53 | C10G A39G G136C | ≤ -4.2
54 | C10G A40U C43A C125G G133A | ≤ -4.2
55 | C10G A47U C54A C72U G81A G92C G133U U135G | ≤ -4.2
56 | C10G A89U C93G | ≤ -4.2
57 | C10G C14G A16U A23U G50A C57G C93A C103G C108U A122U G141U | ≤ -4.2
58 | C10G C14U A49U G50A A64U C76A U90G C118U G128A | ≤ -4.2
59 | C10G C18G G42U A49C G50A G74A G133C G143A | ≤ -4.2
60 | C10G C27G A29G C36U U44G U56G C87A | ≤ -4.2
61 | C10G C27G G59U G88A C123A | ≤ -4.2
62 | C10G C32G C38G U55G C87A G92A C125G G126A | -4.1
63 | C10G C35G U55A C72A C85U G133C U144C | ≤ -4.2

Row | Variant | polymerase ribozyme fitness (log ratio)
64 | C10G C35U A37U A41U C43U U55A G92U U148A | ≤ -4.2
65 | C10G C35U G58C A91G C95U C96A G100U | ≤ -4.2
66 | C10G C36U G70C C79A C95G A115U | ≤ -4.2
67 | C10G C36U U55A C95U G133U | ≤ -4.2
68 | C10G C38A G88A A97U | ≤ -4.2
69 | C10G C38U C87A C93G | ≤ -4.2
70 | C10G C43U C95U | ≤ -4.2
71 | C10G C51U U53A G71C C99G | ≤ -4.2
72 | C10G C54U G62C G86U U146C | ≤ -4.2
73 | C10G C54U U56A G62U G94A C149U | ≤ -4.2
74 | C10G C63A G83C G88U C108G C114G C125A | ≤ -4.2
75 | C10G C63U | ≤ -4.2
76 | C10G C69A G84U U90G | ≤ -4.2
77 | C10G C87U C93G | ≤ -4.2
78 | C10G C93A | ≤ -4.2
79 | C10G C95U C108U C125U | ≤ -4.2
80 | C10G G25A A52C G59C C87A U101A U102G C123U U144C A150C | ≤ -4.2
81 | C10G G34C | ≤ -4.2
82 | C10G G42U G58A G86U A97U U101G G141C | ≤ -4.2
83 | C10G G50C A73U C85U C118G C131A | ≤ -4.2
84 | C10G G58A G59C G65A C95G C96A A120C | ≤ -4.2
